Laboratory results reported in the supplement of paper PMC4604168 (melanoma cell lines).
The list shows a part of the results. Single values are uncertain, as repeats are few or missing.

Key:
Assay in all cases: cell count relative to DMSO control; melanoma cells; higher = more viable cells
Settings in all cases: library dose: low library concentration; 72 h
WM115 = tested on: WM115
WM1716 = tested on: WM1716
WM1745 = tested on: WM1745
WM3526 = tested on: WM3526
WM3619 = tested on: WM3619
WM451Lu = tested on: WM451Lu
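Further: cell number obtained by counting DAPI-stained nuclei in high-throughput microscope images with image analysis software, screen run in 1,536-well plates.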

Structure (SMILES)	cell count (WM115)	cell count (WM1716)	cell count (WM1745)	cell count (WM3526)	cell count (WM3619)	cell count (WM451Lu)
N#CC[C@H](C1CCCC1)n1cc(-c2ncnc3[nH]ccc23)cn1 [ruxolitinib] + CC(=O)O[C@@]12CO[C@@H]1C[C@H](O)[C@@]1(C)C(=O)[C@H](O)C3=C(C)[C@@H](OC(=O)[C@H](O)[C@@H](NC(=O)OC(C)(C)C)c4ccccc4)C[C@@](O)([C@@H](OC(=O)c4ccccc4)[C@H]21)C3(C)C [Docetaxel] (first compound 1 µM, partner dose 0.0001 µM)	71.8%	53%	61.5%	63.1%	53.3%	61.2%
N#CC[C@H](C1CCCC1)n1cc(-c2ncnc3[nH]ccc23)cn1 [ruxolitinib] + C#Cc1cccc(Nc2ncnc3cc(OCCOC)c(OCCOC)cc23)c1 [erlotinib] (first compound 1 µM, partner dose 0.8 µM)	112%	101%	65.9%	88.3%	96.8%	88.6%
N#CC[C@H](C1CCCC1)n1cc(-c2ncnc3[nH]ccc23)cn1 [ruxolitinib] + CC(C)(C)c1cnc(CSc2cnc(NC(=O)C3CCNCC3)s2)o1 [SNS-032] (first compound 1 µM, partner dose 0.01 µM)	108%	99.9%	80.2%	137%	125%	103%
CC[C@]1(O)C[C@H]2CN(CCc3c([nH]c4ccccc34)[C@@](C(=O)OC)(c3cc4c(cc3OC)N(C=O)[C@H]3[C@@](O)(C(=O)OC)[C@H](OC(C)=O)[C@]5(CC)C=CCN6CC[C@]43[C@@H]65)C2)C1 [vincristine] + COc1ccc2c(c1)CCC1C2CCC2(C)C(NCCCCCCN3C(=O)C=CC3=O)CCC12 [U73122] (first compound 0.0001 µM, partner dose 0.4 µM)	66.3%	48.6%	97.7%	88.2%	84.2%	89.8%
Cc1cc(Nc2cc(N3CCN(C)CC3)nc(Sc3ccc(NC(=O)C4CC4)cc3)n2)n[nH]1 [Tozasertib] + Oc1nc(-c2ccc(C(F)(F)F)cc2)nc2c1CSCC2 [XAV939] (first compound 0.006 µM, partner dose 2 µM)	83.3%	60.8%	72.5%	92.9%	83.5%	76.1%
Cc1cc(Nc2cc(N3CCN(C)CC3)nc(Sc3ccc(NC(=O)C4CC4)cc3)n2)n[nH]1 [Tozasertib] + CC(C)C[C@H](NC(=O)[C@H](Cc1ccccc1)NC(=O)c1cnccn1)B(O)O [Bortezomib] (first compound 0.006 µM, partner dose 0.001 µM)	88.4%	67.6%	79.2%	86.1%	47.6%	92.4%
N#CC[C@H](C1CCCC1)n1cc(-c2ncnc3[nH]ccc23)cn1 [ruxolitinib] + O=C(O)c1ccc2c(c1)nc(Nc1cccc(Cl)c1)c1ccncc12 [CX4945] (first compound 1 µM, partner dose 0.4 µM)	114%	102%	101%	104%	76.3%	73.5%
N#CC[C@H](C1CCCC1)n1cc(-c2ncnc3[nH]ccc23)cn1 [ruxolitinib] + O=C(Nc1cc(C(F)(F)F)cc(C(F)(F)F)c1)c1cc(Cl)ccc1O [IMD0354] (first compound 1 µM, partner dose 0.016 µM)	112%	111%	99.3%	99.7%	91.3%	108%
Cc1cc(Nc2cc(N3CCN(C)CC3)nc(Sc3ccc(NC(=O)C4CC4)cc3)n2)n[nH]1 [Tozasertib] + Nc1ncn([C@H]2C[C@H](O)[C@@H](CO)O2)c(=O)n1 [decitabine] (first compound 0.006 µM, partner dose 0.1 µM)	78.9%	72.4%	75.3%	82.1%	104%	78.5%
CC[C@]1(O)C[C@H]2CN(CCc3c([nH]c4ccccc34)[C@@](C(=O)OC)(c3cc4c(cc3OC)N(C=O)[C@H]3[C@@](O)(C(=O)OC)[C@H](OC(C)=O)[C@]5(CC)C=CCN6CC[C@]43[C@@H]65)C2)C1 [vincristine] + O=C(Nc1ccccc1)c1cc([N+](=O)[O-])ccc1Cl [GW9662] (first compound 0.0001 µM, partner dose 2 µM)	59.9%	49.3%	89.1%	59.3%	56.9%	44%
Cc1cc(Nc2cc(N3CCN(C)CC3)nc(Sc3ccc(NC(=O)C4CC4)cc3)n2)n[nH]1 [Tozasertib] + Cn1c(Nc2ccc(C(F)(F)F)cc2)nc2cc(Oc3ccnc(-c4ncc(C(F)(F)F)[nH]4)c3)ccc21 [CHIR265] (first compound 0.006 µM, partner dose 0.08 µM)	44.2%	61.5%	57.8%	48.5%	62.1%	102%
Cc1cc(Nc2cc(N3CCN(C)CC3)nc(Sc3ccc(NC(=O)C4CC4)cc3)n2)n[nH]1 [Tozasertib] + CC(C)(C)c1cnc(CSc2cnc(NC(=O)C3CCNCC3)s2)o1 [SNS-032] (first compound 0.006 µM, partner dose 0.01 µM)	83.4%	90.5%	101%	93.5%	96.3%	89.6%
N#CC[C@H](C1CCCC1)n1cc(-c2ncnc3[nH]ccc23)cn1 [ruxolitinib] + Cn1c(Nc2ccc(C(F)(F)F)cc2)nc2cc(Oc3ccnc(-c4ncc(C(F)(F)F)[nH]4)c3)ccc21 [CHIR265] (first compound 1 µM, partner dose 0.08 µM)	71.9%	82.5%	81.6%	70.7%	94%	83%
N#CC[C@H](C1CCCC1)n1cc(-c2ncnc3[nH]ccc23)cn1 [ruxolitinib] + NC(=O)Nc1cc(-c2cccc(F)c2)sc1C(=O)N[C@H]1CCCNC1 [AZD7762] (first compound 1 µM, partner dose 0.02 µM)	113%	85.8%	102%	113%	60.3%	75.6%
Cc1cc(Nc2cc(N3CCN(C)CC3)nc(Sc3ccc(NC(=O)C4CC4)cc3)n2)n[nH]1 [Tozasertib] + C[C@@H]1CCN(C(=O)CC#N)C[C@@H]1N(C)c1ncnc2[nH]ccc12 [CP690550] (first compound 0.006 µM, partner dose 1 µM)	94.4%	96.2%	85%	98.3%	89.2%	99.8%
CC[C@]1(O)C[C@H]2CN(CCc3c([nH]c4ccccc34)[C@@](C(=O)OC)(c3cc4c(cc3OC)N(C=O)[C@H]3[C@@](O)(C(=O)OC)[C@H](OC(C)=O)[C@]5(CC)C=CCN6CC[C@]43[C@@H]65)C2)C1 [vincristine] + O=C(CCCCCCC(=O)Nc1ccccc1)NO [vorinostat] (first compound 0.0001 µM, partner dose 0.08 µM)	67.2%	50.9%	106%	96.2%	67.7%	68%
CC[C@]1(O)C[C@H]2CN(CCc3c([nH]c4ccccc34)[C@@](C(=O)OC)(c3cc4c(cc3OC)N(C=O)[C@H]3[C@@](O)(C(=O)OC)[C@H](OC(C)=O)[C@]5(CC)C=CCN6CC[C@]43[C@@H]65)C2)C1 [vincristine] + CN1CCN(c2ccc3nc(-c4c(N)c5c(F)cccc5[nH]c4=O)[nH]c3c2)CC1 [Dovitinib] (first compound 0.0001 µM, partner dose 0.1 µM)	60.7%	46%	96%	61.4%	46.5%	49.4%
Cc1cc(Nc2cc(N3CCN(C)CC3)nc(Sc3ccc(NC(=O)C4CC4)cc3)n2)n[nH]1 [Tozasertib] + C=CCNC1=C2C[C@@H](C)C[C@H](OC)[C@H](O)[C@@H](C)/C=C(\C)[C@H](OC(N)=O)[C@@H](OC)/C=C\C=C(/C)C(=O)NC(=CC1=O)C2=O [Tanespimycin] (first compound 0.006 µM, partner dose 0.002 µM)	91.2%	86.7%	92.6%	86%	72.7%	89.1%
Cc1cc(Nc2cc(N3CCN(C)CC3)nc(Sc3ccc(NC(=O)C4CC4)cc3)n2)n[nH]1 [Tozasertib] + COc1cc([C@@H]2c3cc4c(cc3[C@@H](O[C@@H]3O[C@@H]5CO[C@@H](C)O[C@H]5[C@H](O)[C@H]3O)[C@H]3COC(=O)[C@H]23)OCO4)cc(OC)c1O [etoposide] (first compound 0.006 µM, partner dose 0.02 µM)	90%	74%	84.5%	94%	87.4%	84.5%
CC[C@]1(O)C[C@H]2CN(CCc3c([nH]c4ccccc34)[C@@](C(=O)OC)(c3cc4c(cc3OC)N(C=O)[C@H]3[C@@](O)(C(=O)OC)[C@H](OC(C)=O)[C@]5(CC)C=CCN6CC[C@]43[C@@H]65)C2)C1 [vincristine] + COc1cc(Nc2ncc(F)c(Nc3ccc4c(n3)NC(=O)C(C)(C)O4)n2)cc(OC)c1OC [Tamatinib] (first compound 0.0001 µM, partner dose 0.4 µM)	38.4%	50.6%	51.6%	56.9%	65.3%	53.7%
